Source: PubChem BioAssay AID1347417 (National Center for Advancing Translational Sciences (NCATS), 2020)
Among all 120,000 compounds or so, about 5,300 (4.4%) were called active. Inconclusive means that the source gave no clear call. Such entries were picked first, then a sample of the others. The call rests on the fitted dose curve; in most records, active means well fitted inhibition curve with a large enough effect; inconclusive means small, poorly fitted or top-dose-only effect; inactive means no such curve, though single readings can be large or run the other way. A potency beside an inconclusive call is a rough fit, not a confirmed value.

Assay: qHTS Primary assay for Inhibitors of Plasmodium falciparum Dd2 growth in vitro; further: nearly all actives have a fitted effect of over 65% in size;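 on activity, negative = inhibition: plate controls were DMSO vehicle for no effect and reference drug for full effect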
Conditions: P. falciparum Dd2 growth, SYBR Green, 72 h; activity, negative = inhibition: at 28.9 µM (top of the series) unless noted; series mostly up to 28.9 µM
Summary of the method: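 Readout: SYBR Green fluorescence, 485 nm excitation, 535 nm emission, after ~16 h lysis at 37C. Before that, Dd2-infected red cells (2.5% hematocrit) grew 72 h with compound, 29 uM top final concentration.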
Potency means the concentration at half of the fitted maximal effect; tags describe the fitted curve by direction and shape.

Compound	Potency	activity, negative = inhibition	outcome
Cc1c(Cl)cccc1NC(=O)c1oc2ccc(S(=O)(=O)N3CCC4(CC3)OCCO4)cc2c1C	active: 12.6 µM		
CCOC(=O)c1sc(NC(=O)CC[C@H]2NC(=O)c3ccccc3NC2=O)nc1C	inconclusive: 14.1 µM [inhibitor, partial curve, poor fit]		
O=C(c1cc2ccccc2[nH]1)N1CCC2(CC1)CN(c1ccncn1)CC2CO (centres undefined)	inconclusive: 11.2 µM [inhibitor, single point]		
COc1cc(CNc2nccc3c(=O)cc(N4CCOCC4)oc23)cc(OC)c1	inconclusive: 2.82 µM [inhibitor, partial curve, poor fit]		
COc1ccc(OC)c(NC(=O)Cn2c(=O)n(Cc3ccco3)c(=O)c3cc(OC)c(OC)cc32)c1	inconclusive: 1 µM [inhibitor, single point]		
Brc1ccc(Nc2c3c(nc4nncn24)CCC3)cc1	active: 3.98 µM		
COCc1cn(C[C@H]2CC3CCN2C[C@@H]3C(=O)Nc2ccccc2)nn1 (some centres undefined)		inactive: 28.3% [at 44.1 µM]	
CC(C)N(C)C(=O)c1cc(-c2cnc(C(C)(C)C)nc2)nc2cc(F)ccc12	inconclusive: 7.94 µM [inhibitor, partial curve, poor fit]		
Cc1cc(C)cc(-n2c(SCC(=O)Nc3cccc(F)c3)nc3c([nH]c4ccccc43)c2=O)c1	inconclusive: 11.2 µM [inhibitor, single point]		
CN(C)CC1(O)CCC2(CCN(C(=O)c3[nH]nc4c3COc3ccccc3-4)CC2)CC1	inconclusive: 20 µM [inhibitor, partial curve, poor fit]		
O=C1NCCCCCCN(Cc2ccncc2)[C@@H]2CN(C(=O)C3(c4ccccc4)CC3)CC[C@@H]12	inconclusive: 17.8 µM [inhibitor, single point]		
CCOC(=O)C1=CN(CC(=O)Nc2ccc(C(C)=O)cc2)S(=O)(=O)N=C1C	inconclusive: 8.91 µM [inhibitor, single point]		
CCCN(CCC)C(=O)CSc1c2c(nc3ccc(Cl)cc13)CCCC2			inactive
CCN(CC)c1cc(CCC(=O)NCc2ccc(Cl)cc2)ccn1	active: 5.01 µM		
COCCNC(=O)CCCN1C(=O)COc2ccc(C(=O)COc3ccc(C)cc3C)cc21	inconclusive: 10 µM [inhibitor, single point]		
O=C1NC2(CCN(Cc3ccc(C(F)(F)F)cc3)CC2)COc2ccccc21	inconclusive: 1.26 µM [inhibitor, full curve, poor fit]		
CCOc1ccccc1CNC(=O)CCC(=O)N1CCSc2ccccc21	inconclusive: 10 µM [inhibitor, single point]		
Cc1ccc(CN2CCc3nc(C(=O)Nc4ccc(Cl)cc4)oc3CC2)cc1	inconclusive: 17.8 µM [inhibitor, single point]		
O=C(COc1ccccc1)Nc1ccc(-c2nnc3n2CCCC3)cc1	active: 10 µM		
COc1ccc(NC(=O)O[C@@H]2CC[C@]3(C)C(CC[C@@H](O)[C@H]3CC(=O)NCc3ccccc3)[C@]2(C)CO)cc1 (some centres undefined)	inconclusive: 11.2 µM [inhibitor, single point]		

Compound	Potency	activity, negative = inhibition	outcome
COc1ccc(S(=O)(=O)NCCc2sc3nc(-c4ccc(C)cc4)nn3c2C)cc1C	inconclusive: 15.8 µM [inhibitor, single point]		
CCCCNc1oc(-c2ccc(COc3ccccc3C)o2)nc1C#N	active: 11.2 µM		
O=C(CN1CCCC1=O)N1CCC(C2CCNC2)CC1 (centres undefined)		inactive: 19.1%	
COc1ccc(C(=O)N2CCC3(C2)C(=O)N(CCc2ccccc2)c2ccccc23)cc1 (centres undefined)	inconclusive: 11.2 µM [inhibitor, single point]		
CC(C)c1noc(-c2cccn3c(CNC(=O)c4nccc5ccccc45)nnc23)n1	inconclusive: 0.398 µM [inhibitor, full curve]		
COc1ccc(OCC(=O)Nc2c(C(=O)N3CCN(c4ccccc4)CC3)oc3ccccc23)cc1	active: 11.2 µM		
CC(C)n1cnnc1CN1CCN(Cc2ccccn2)[C@@H]2CS(=O)(=O)C[C@@H]21		inactive: -11.4%	
COCCNc1nc2c(c(=O)n(Cc3cccc(Cl)c3)c(=O)n2C)n1C	inconclusive: 7.94 µM [inhibitor, partial curve]		
COc1ccc(C(=O)NC2CCN(c3cc(-c4ccccc4)[nH]n3)CC2)cc1			inactive
Cc1cccc(Cn2c(=O)n(CCCC(=O)NCc3ccccc3Cl)c(=O)c3ccccc32)c1	inconclusive: 7.94 µM [inhibitor, partial curve, poor fit]		
CC1=C[C@@H](CN2CCN(CCO)CC2)[C@H](C(C)C)C[C@H]1Cc1nnc(-c2ccc([N+](=O)[O-])cc2)o1	active: 2.51 µM		
Cc1ccc(S(=O)(=O)c2nc(-c3cccs3)oc2SCC(=O)Nc2cc(C)cc(C)c2)cc1	inconclusive: 8.91 µM [inhibitor, single point]		
CC(C)c1nc2c(c(-c3ccc(Cl)cc3)n1)CN([S+](=O)([O-])c1cccc(C(F)(F)F)c1)CC2	inconclusive: 7.08 µM [inhibitor, partial curve, poor fit]		
COCCN(C)C[C@H]1C[C@@H](CO)CN(C(=O)Cc2ccc(C)c(C)c2)C1	inconclusive: 7.08 µM [inhibitor, partial curve]		
CNC(=O)[C@@H]1C[C@H](Oc2ccccc2)CN1S(C)(=O)=O		inactive: -8.94%	
Cc1ccc(Nc2c3c(nc4nc(-c5cccs5)nn24)CCCC3)cc1F	inconclusive: 12.6 µM [inhibitor, single point]		
COc1ccc(N2C(=O)CSC23C(=O)N(Cc2cccc(C(F)(F)F)c2)c2ccccc23)cc1 (centres undefined)	inconclusive: 17.8 µM [inhibitor, single point]		
CC(C)(C)CC(=O)N1CCC2(CC1)C(=O)N(CC(=O)Nc1ccccc1)CN2c1ccccc1	inconclusive: 1.26 µM [inhibitor, partial curve, poor fit]		
Cc1ccc(CN2C(=O)[C@@H]3C[C@@H](O)CN3C3(CN(C(C)C)C3)C2=O)o1	inconclusive: 11.2 µM [inhibitor, partial curve]		
